Laboratory results published in US11008402 (dated 2021).

B1: scDbhu225x3-43-Fc (GGGGS), EGFR arm (antibody)
chain: METDTLLLWVLLLWVPGSTGEVQLVESGGGLVQPGGSLRLSCAASGFSLTNYGVHWVRQAPGKGLEWLGVIWSGGNTDYNTPFTSRFTISRDNSKNTLYLQMNSLRAEDTAVYYCARALTYYDYEFAYWGQGTTVTVSSGGGGSQAGLTQPPAVSVAPGQTASITCGRDNIGSRSVHWYQQKPGQAPVLVVYDDSDRPAGIPERFSGSNYENTATLTISRVEAGDEADYYCQVWGITSDHVVFGGGTKLTVLGGGGSGGGGSGGGGSQVQLQQSGPGLVKPSQTLSLTCAISGDSVSSNRAAWNWIRQSPSRGLEWLGRTYYRSKWYNDYAQSLKSRITINPDTPKNQFSLQLNSVTPEDTAVYYCARDGQLGLDALDIWGQGTMVTVSSGGGGSDIQLTQSPSFLSASVGDRVTITCRASQSIGTNIHWYQQKPGKAPKLLIKYASESISGVPSRFSGSGSGTEFTLTISSLQPEDFATYYCQQNNNWPTTFGAGTKLEIKRAAAGGSGG[no letters for human IgG1 Fc]
B2: scFv3-43-Fc-scTRAIL, TRAIL part (antibody)
chain: METDTLLLWVLLLWVPGSTGDYKDDDDKGGGGSGTQVQLQQSGPGLVKPSQTLSLTCAISGDSVSSNRAAWNWIRQSPSRGLEWLGRTYYRSKWYNDYAQSLKSRITINPDTPKNQFSLQLNSVTPEDTAVYYCARDGQLGLDALDIWGQGTMVTVSSGGGGSGGGGSGGGGSQAGLTQPPAVSVAPGQTASITCGRDNIGSRSVHWYQQKPGQAPVLVVYDDSDRPAGIPERFSGSNYENTATLTISRVEAGDEADYYCQVWGITSDHVVFGGGTKLTVLAAAGGSGG[no letters for human IgG1 Fc]GGSGGGSSGGGPQRVAAHITGTRGRSNTLSSPNSKNEKALGRKINSWESSRSGHSFLSNLHLRNGELVIHEKGFYYIYSQTYFRFQEEIKENTKNDKQMVQYIYKYTSYPDPILLMKSARNSCWSKDAEYGLYSIYQGGIFELKENDRIFVSVTNEHLIDMDHEASFFGAFLVGGGPQRVAAHITGTRGRSNTLSSPNSKNEKALGRKINSWESSRSGHSFLSNLHLRNGELVIHEKGFYYIYSQTYFRFQEEIKENTKNDKQMVQYIYKYTSYPDPILLMKSARNSCWSKDAEYGLYSIYQGGIFELKENDRIFVSVTNEHLIDMDHEASFFGAFLVGGGPQRVAAHITGTRGRSNTLSSPNSKNEKALGRKINSWESSRSGHSFLSNLHLRNGELVIHEKGFYYIYSQTYFRFQEEIKENTKNDKQMVQYIYKYTSYPDPILLMKSARNSCWSKDAEYGLYSIYQGGIFELKENDRIFVSVTNEHLIDMDHEASFFGAFLVG
B3: scDb 4D5x3-43-Fc, HER2 arm (antibody)
chain: METDTLLLWVLLLWVPGSTG[no letters for about 120 residues]GGGGSQAGLTQPPAVSVAPGQTASITCGRDNIGSRSVHWYQQKPGQAPVLVVYDDSDRPAGIPERFSGSNYENTATLTISRVEAGDEADYYCQVWGITSDHVVFGGGTKLTVLGGGGSGGRASGGGGSGGGGSQVQLQQSGPGLVKPSQTLSLTCAISGDSVSSNRAAWNWIRQSPSRGLEWLGRTYYRSKWYNDYAQSLKSRITINPDTPKNQFSLQLNSVTPEDTAVYYCARDGQLGLDALDIWGQGTMVTVSSGGGGS[no letters for about 100 residues]RAAAGGSGG[no letters for human IgG1 Fc]
B4: scDb4D5x3-43-LL, HER2 arm (antibody)
chain: METDTLLLWVLLLWVPGSTGDAAQPAMA[no letters for about 120 residues]GGGGSQAGLTQPPAVSVAPGQTASITCGRDNIGSRSVHWYQQKPGQAPVLVVYDDSDRPAGIPERFSGSNYENTATLTISRVEAGDEADYYCQVWGITSDHVVFGGGTKLTVLGGGGSGGRASGGGGSGGGGSQVQLQQSGPGLVKPSQTLSLTCAISGDSVSSNRAAWNWIRQSPSRGLEWLGRTYYRSKWYNDYAQSLKSRITINPDTPKNQFSLQLNSVTPEDTAVYYCARDGQLGLDALDIWGQGTMVTVSSGGGGS[no letters for about 120 residues]
B5: scDb 2-35x3-43-Fc, HER2 arm (antibody)
chain: METDTLLLWVLLLWVPGSTGQMQLVQSGAEVKKPGESLKISCKGSGYSFTSYWIGWVRQMPGKGLEWMGIIYPGDSDTRYSPSFQGQVTISADKSISTAYLQWSSLKASDTAMYYCARLGRSGSYYNYGMDVWGQGTTVTVSSGGGGSQAGLTQPPAVSVAPGQTASITCGRDNIGSRSVHWYQQKPGQAPVLVVYDDSDRPAGIPERFSGSNYENTATLTISRVEAGDEADYYCQVWGITSDHVVFGGGTKLTVLGGGGSGGRASGGGGSQVQLQQSGPGLVKPSQTLSLTCAISGDSVSSNRAAWNWIRQSPSRGLEWLGRTYYRSKWYNDYAQSLKSRITINPDTPKNQFSLQLNSVTPEDTAVYYCARDGQLGLDALDIWGQGTMVTVSSGGGGSQAVVTQEPSFSVSPGGTVTLTCGLSSGSVSSSYYPSWYQQTSGQPPRTLIYSTDTRSSGVPDRFSGSILGDKAALTITGAQADDESDYYCMLYMGSGISVFGGGTKLAVLAAAGGSGG[no letters for human IgG1 Fc]

What was measured:
[1] = target: EGFR ECD (human, UniProt P00533); experiment: ELISA
[2] = target: TRAIL-R2-Fc (human, UniProt O14763); experiment: ELISA
[3] = target: HER2 ECD (human, UniProt P04626); experiment: ELISA
[4] = target: HER2 (cell surface) (human, UniProt P04626); experiment: FACS, FaDu (HER2 and HER3 positive)

| Binder | EC50 [3] [nM] | other results |
| --- | --- | --- |
| B1 | – | EC50 [1]: 0.16 nM |
| B2 | – | EC50 [2]: 2.84 nM |
| B3 | 2.5 | EC50 [4]: 2.9 nM |
| B4 | 1.54 | – |
| B5 | ~1.5 | – |
